Our source for the ETS1 binding intensity values is the supplement of paper PMC10681739.

Over roughly 4,100 sequences, “arbitrary fluorescence units” has its median near 780; the highest 2% begin near 22,000. The list shows a part of the results.

This assay has as its target T1, ETS1 (UniProt P14921).
T1 sequence: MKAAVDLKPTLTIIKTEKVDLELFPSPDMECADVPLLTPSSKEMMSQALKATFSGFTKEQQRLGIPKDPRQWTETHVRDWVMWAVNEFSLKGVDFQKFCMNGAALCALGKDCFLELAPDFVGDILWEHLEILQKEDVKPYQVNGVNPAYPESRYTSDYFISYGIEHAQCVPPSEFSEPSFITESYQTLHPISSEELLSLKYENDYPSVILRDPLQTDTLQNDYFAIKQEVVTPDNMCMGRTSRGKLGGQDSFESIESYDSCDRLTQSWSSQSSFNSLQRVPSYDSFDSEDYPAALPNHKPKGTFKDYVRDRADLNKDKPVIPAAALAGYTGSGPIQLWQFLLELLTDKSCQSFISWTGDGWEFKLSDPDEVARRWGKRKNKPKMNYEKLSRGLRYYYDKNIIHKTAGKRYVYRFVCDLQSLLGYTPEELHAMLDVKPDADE
The assay is described as follows: ETS1 binding intensity (PBM fluorescence), ETS1 alone (arbitrary fluorescence units); higher = stronger binding. The following applies: ETS1 concentration 1 nM; RUNX1 concentration 0 nM. The method in brief: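 Recombinant full-length human ETS1 was applied at 1 nM, without RUNX1, to double-stranded Agilent 4 × 180k arrays of 36-bp genomic probes carrying a mutated RUNX1 partner site, following standard PBM protocols. Detection used an anti-ETS1 antibody (Cell Signaling Technology 14069) and an Alexa488-conjugated secondary antibody, with scanning on a GenePix 4400A. Each sequence was printed as four replicate spots. Binding level is the spot fluorescence intensity, summarised across replicates and not normalised.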
Sequence CGGTCTGACCCCAAACTCTGCCTTCCGGCAAGGCTG showed an ETS1 binding intensity of 936.
Regarding TGGCTACCCGGAAGGCGCGTTGGCTGCGCCTACGCA, the ETS1 binding intensity is 749.
Regarding TCAAAAACCTTAGCACTTCAGCCGGAAACTACAGGA, the ETS1 binding intensity is 704.
On to ACAGATGGTCCGGAACTTCAGAAAAGCACTCATTGT, for which the ETS1 binding intensity worked out at 566.
The sequence CCCAATTTCCTTTGCTCTGCTGTCTGCCAACCCCAA came in with an ETS1 binding intensity of 3560.
Sequence GAGAAGAACCCCAATTCAAAGTGATGGGGGAAATGG had an ETS1 binding intensity of 435.
Under AAGGGCCGCTCTGGTGTCCGGATGCTGGGACGGTGC stands 476; under CCGTAAGCGCTCTTTCCCCGAGCGGAAGCACAATGC, 869; under GCTCTGCATCTTTTGGGCTAAGGAAGCAGGTCCCAC, 358.
Consider CTGTCGTGACCCGGCAGGAGTAGCGTCGGAAGCAAT, for which the ETS1 binding intensity amounted to 403.
Turning to CCCGGCGGAACTCGCTGTCCCGGCAGGCACCGTGGC, the ETS1 binding intensity turned out to be 632.
In turn, AAAGCCAACTACAACATGAAGGGGAAGTACACAATA registered an ETS1 binding intensity of 463.
The sequence GAAGGAAGTGGAGACAGTAAGGGGAAACTACAAACC had an ETS1 binding intensity of 993.
GCACGCCTGAGGGTGCTCATGGGAAATGTAGTTTTT: the ETS1 binding intensity worked out at 349.
In turn, AGAAGCGGCGCCCGCCCCCGTTTCCTCTCTTCCTCC came in with an ETS1 binding intensity of 715.
ATTAAAGACTTCCGTGCAAGAGCACAGCTGCCTGAC yielded an ETS1 binding intensity of 4380.
As to GCAAAGTTCTGGGAGCCCTACTTCCTGCGGAGCCCC, the ETS1 binding intensity amounted to 2310.
The sequence GCGGGCGCACTTCGGGGGCCAAGGAAGGAAGAAATG displayed an ETS1 binding intensity of 412.
On to TTGACCCGGACGTGGACAAAAGACAGCAAAGGACGC, for which the ETS1 binding intensity stood at 1080.
Consider TCAGTTTCCTCATCAGGGGCAAGGGCACCACCTCGG, for which the ETS1 binding intensity came to 2048.
In the case of CCAGCGCCGAGGTACAACCTCGGCACTTCCGCCCGC, the ETS1 binding intensity is 2290.
Sequence TTTACGGCGCTAGTGCTCTGGTCACCGGAAGTCCCT showed an ETS1 binding intensity of 2070.
In turn, TTATCTGTCGTTCTTTTATGGGGTGGGCTTCCTCTG had an ETS1 binding intensity of 503.
The sequence AGTCTTAGCACCTCTGAGGATGACTGAGCGGAAGAG had an ETS1 binding intensity of 449.
Sequence CCCAACCATTTCCGCCACACCTCCAACCTACTGCCG registered an ETS1 binding intensity of 12000.
For ACTCGCGCACCCCCAGAGTTCCCCTTCCGGCAGTGG the value was 1130; for CCCTTGCCTGCAGGACGGCGGCCCGGAAGTGACGTA, 2590.
Sequence TCAGCAAGACCCCAAACCCACCGGAAAGAAGAAACT came in with an ETS1 binding intensity of 820.
The sequence GCCTCCTCACCCCAGTGAGCACATCCCCTTGGGTTG showed an ETS1 binding intensity of 302.
Sequence TTTTATCTTCCGCGAGCCCTCATCCCTCAACTCTTC gave an ETS1 binding intensity of 691.
Under TTCTGAGGAAGTCCTTGGCTGAGGTAGGGCCGAAGA stands 439; under AATCGCGCAGTTCCGCAGCTGCCGCCCCACGAACGC, 570; under GAGGGGTGGGGGAGGAAGGCTGCGGATTCTGCTGGG, 1220.
Take TCTGTGCGAGCTGCAGCTCTCAGACTCAGGATGAGG: the ETS1 binding intensity was determined as 309.
In the case of CGTGTTCCGTAAGCACCACCCCTCTTCCTGTTTCTC, the ETS1 binding intensity amounted to 1610.
With GTGAGCTTCCCGGCGCGCGGGGGGCGGTGCGCCTTC, the ETS1 binding intensity was determined as 797.
ACACTGGGAAGTGCCATGGCCAGCGATTTCTTGCAA returned an ETS1 binding intensity of 366.
CAACCCGGAAGCACTAACGGAGAAATCGCAACTCGG: the ETS1 binding intensity turned out to be 2860.
Take TGCGCCGCTGCGCCCCAGCCTCCGGAAGACAGGGGA: the ETS1 binding intensity worked out at 398.
In turn, CTGCAGCCGAGGTCTCCCGGCGGAAGCTCTTCACTT showed an ETS1 binding intensity of 519.
For the sequence TTCATAAAGGAGAGGAAACCTGACCTCGACAGAAAG, the ETS1 binding intensity amounted to 451.
CTGACACTTCCGGGAGCCTTGTAGGCACAGGAATCA displayed an ETS1 binding intensity of 20700.
For the sequence ACCGTTCTCCGGCCGCCCTCGGGCACTTCCGGTCCT, the ETS1 binding intensity worked out at 10200.
For TAAAACCAAACTACAGATGACACATTTCCTTTCCAC, the ETS1 binding intensity was determined as 613.
Consider GCATTTTGGTGGAAGACGCGCGCCGGATCTCTCAGG, for which the ETS1 binding intensity worked out at 356.
GTAGGGGAGGGACCCCAGGGAGGCGGAAGTCCTTGT displayed an ETS1 binding intensity of 873.
GGAGCATCCCGGAAGTCGTCACTTCGGCCGCTCCCG: the ETS1 binding intensity amounted to 12200.
Regarding TTTCTTCGTGGGAGGGAGTGGGGGAAGTTGACTGAT, the ETS1 binding intensity was 984.
Regarding TCCTTATAAATCCACCTATATCCGTTCTCATACACA, the ETS1 binding intensity amounted to 2020.
GTAAAATGCGCTCGGGTAGAAACCTACTTCCGGTCC returned an ETS1 binding intensity of 13500.
CAGCTTTCCGGCCTGCAGCACAGGCAATGTGATTTT gave an ETS1 binding intensity of 6830.
For CTCCTTCCTGTGTGTTACTCTTAAAAATCACAGAGG, the ETS1 binding intensity worked out at 7320.
Sequence GTGGGGCAGGATGTGCTTGCCTGGCTGCTGTTGGAC yielded an ETS1 binding intensity of 2130.
GTGCGGAAGCGCGCCAAGGCACGTGGCCGCTTCTGT registered an ETS1 binding intensity of 1900.
Take TCGCTAGCGACAGCCATTTTTGTACCCGGGAAGCCC: the ETS1 binding intensity turned out to be 335.
The sequence GCAGTTCATACCAAAAAACCCATCGTTTCCTGCAAC displayed an ETS1 binding intensity of 601.
For CTCTTGGCGGACGTTCCACATTGCCACTGACTTTGT the value was 616; for GGGCGATTACCGAGGCCCGCCACCGCCGGAAGGGTG, 333.
In turn, GGAGATCCGGCAAGGCTCCATCCAGCGCTGGCGACA showed an ETS1 binding intensity of 2590.
Sequence TTCCAGACTACAAGAGCTTCCACTTCCTTTCTCTTG returned an ETS1 binding intensity of 1690.
As to TGTGTAGGTTTCTGGACTATGGGGCTTCCTGGAAGT, the ETS1 binding intensity is 522.
CTACCTCCTGAGGTGACTCCACCCCTTCCTGCATCA returned an ETS1 binding intensity of 450.
